# Source: article PMC4336329 (PLoS ONE, 2015)
# Out of some 310,000 compounds screened, about 14,000 (4.5%) showed an effect of 50% or more. Effects have a minus sign here. Some of the results follow.
# Biological target: human ether-à-go-go-related gene (hERG) potassium channel (human, UniProt Q12809)
# Assay: primary screen, population patch clamp on CHO cells stably expressing hERG
# 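Note: peak tail current of the secondary pulse compared with the same well before compound.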
# Sequence of human ether-à-go-go-related gene (hERG) potassium channel (Q12809 whole entry, looked up): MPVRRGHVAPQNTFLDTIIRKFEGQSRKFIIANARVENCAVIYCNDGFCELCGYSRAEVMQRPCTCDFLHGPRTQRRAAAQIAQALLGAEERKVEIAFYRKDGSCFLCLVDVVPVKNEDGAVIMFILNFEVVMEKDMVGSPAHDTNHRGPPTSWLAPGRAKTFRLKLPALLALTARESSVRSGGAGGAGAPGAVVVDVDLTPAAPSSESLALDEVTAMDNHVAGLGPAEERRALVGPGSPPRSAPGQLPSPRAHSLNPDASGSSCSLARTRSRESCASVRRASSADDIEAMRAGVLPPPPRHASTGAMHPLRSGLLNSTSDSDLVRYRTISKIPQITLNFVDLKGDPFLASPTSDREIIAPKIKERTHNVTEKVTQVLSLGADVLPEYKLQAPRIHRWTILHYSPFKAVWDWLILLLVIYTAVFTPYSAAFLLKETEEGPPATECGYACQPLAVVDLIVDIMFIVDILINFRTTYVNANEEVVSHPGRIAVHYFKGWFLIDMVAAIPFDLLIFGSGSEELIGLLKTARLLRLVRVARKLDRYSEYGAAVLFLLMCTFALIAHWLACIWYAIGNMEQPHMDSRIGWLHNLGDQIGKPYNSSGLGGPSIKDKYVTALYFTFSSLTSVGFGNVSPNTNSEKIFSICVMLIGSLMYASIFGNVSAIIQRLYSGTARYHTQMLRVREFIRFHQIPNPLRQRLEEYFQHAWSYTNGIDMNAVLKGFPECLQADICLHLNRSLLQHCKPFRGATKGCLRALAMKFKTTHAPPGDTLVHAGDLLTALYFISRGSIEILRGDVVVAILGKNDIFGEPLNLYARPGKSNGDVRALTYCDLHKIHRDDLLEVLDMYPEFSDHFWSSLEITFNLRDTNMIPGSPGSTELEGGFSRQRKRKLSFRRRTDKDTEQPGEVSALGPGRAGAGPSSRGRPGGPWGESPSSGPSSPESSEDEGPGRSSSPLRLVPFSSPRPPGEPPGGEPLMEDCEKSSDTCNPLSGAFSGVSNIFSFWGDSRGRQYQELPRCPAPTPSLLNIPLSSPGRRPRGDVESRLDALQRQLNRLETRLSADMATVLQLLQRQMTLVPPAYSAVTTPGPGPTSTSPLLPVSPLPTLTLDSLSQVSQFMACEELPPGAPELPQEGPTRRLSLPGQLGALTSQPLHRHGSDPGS
row,Structure (SMILES),"hERG current change (%, negative = inhibition) at 10uM [%]"
1,CCCn1c(=N)c(S(=O)(=O)c2ccccc2)cc2c(=O)n3cccc(C)c3nc21,0.577
2,CCOCCCNC(=O)C(NC(=O)CNC(=O)c1ccccc1)c1ccc(C)cc1 (stereo not shown),-2.53
3,O=C(NC1CCCCC1)C(c1ccncc1)N(C(=O)c1csnn1)c1cccc(F)c1 (stereo not shown),-12.3
4,Cn1c(-c2ccccc2[N+](=O)[O-])[n+](C)c2ccccc21.[Cl-],12.4
5,Cc1ccc(-n2ncc(C(=O)N3CCN(C(=O)c4ccco4)CC3)c2C2CCN(C(=O)OC(C)(C)C)CC2)cc1C,0.366
6,CN(C(=O)COC(=O)c1ccccc1NCc1ccco1)c1c(N)n(Cc2ccccc2)c(=O)[nH]c1=O,-3.77
7,CC1CCC/C(=N\Nc2ccc(Cl)c(C(=O)O)c2)C1 (stereo not shown),6.46
8,CCN1C(=O)c2cccc3cccc1c23,4.94
9,Cc1c(NC(=O)CSc2nnc(Nc3ccccc3)s2)c(=O)n(-c2ccccc2)n1C,-35.1
10,O=C(NN1C(=O)/C(=C\c2cccnc2)SC1=S)C(c1ccccc1)c1ccccc1,3.58
11,CC(=O)/C(=N/Nc1cccc(Cl)c1)Sc1nnc(C(O)c2ccccc2)n1-c1ccccc1 (stereo not shown),-3.07
12,COc1cccc(Cc2n[nH]c(=S)n2Cc2ccco2)c1,13.9
13,COCCCNC(=O)/C=C1\Sc2ccccc2N(Cc2ccccc2F)C1=O,-12.6
14,CCOC(=O)CC(NC(=O)c1ccc(C)cc1)c1ccc(C)cc1 (stereo not shown),2.74
15,O=C(O)CCCSCC(=O)Nc1ccccc1,8.14
16,Cc1ccccc1Nc1nc(N)nc(COC(=O)c2cccc(S(=O)(=O)N(C)C)c2)n1,-4.61
17,CCOc1ccc(NC(=O)c2cc(OC)nc3ccccc23)cc1,15.8
18,COc1ccccc1C1N(c2cc(Cl)ccc2OC)C(=O)C2CCCN21 (stereo not shown),1.23
19,CC(C)(C)n1ncc2c(=O)n(CC(=O)NC3CCCCC3)cnc21,5.38
20,CC(C)NC(=O)C(=O)NCc1ccccn1,5.94
21,O=C(NCCCN1CCCC1)Nc1ccccc1[N+](=O)[O-],18.1
22,C/C(=N/NC(=O)c1nnn(-c2nonc2N)c1-c1ccccc1)c1ccncc1,11.4
23,COc1cc(-c2noc(-c3ccccc3C(=O)NCc3ccco3)n2)cc(OC)c1OC,-3.88
24,Cc1ccc(C)n1-c1ccsc1C(=O)CC#N,42.2
25,CCOc1ncccc1C(=O)OCc1ccc([N+](=O)[O-])cc1,-21.1
26,Cc1cccc(NCN2C(=O)c3ccncc3C2=O)n1,17
27,COc1ccccc1NC(=O)CSc1nnnn1C1CCCCC1,-33.6
28,Cc1ccc2nc(N3CCN(Cc4ccc(F)cc4)C3=O)c(C)cc2c1,-19.8

row,Structure (SMILES),"hERG current change (%, negative = inhibition) at 10uM [%]"
1,O=C(NCc1ccc(F)cc1F)c1cc(COc2c(F)cccc2F)on1,34
2,COc1ccc(C2NC(C(=O)O)Cc3c2[nH]c2ccccc32)cc1OC (stereo not shown),24.9
3,COc1ccc(/C=N/Nc2cc(N3CCOCC3)nc(C)n2)c(OC)c1,-4.66
4,CC(=O)n1c2c(c3ccccc31)OC(N)=C(C#N)C2c1cccc(Cl)c1Cl.CCO (stereo not shown),13.2
5,C#CCOCCOCCOCCNc1nc(N2CCN(C(=O)[C@H]([C@@H](C)O)n3cc(CCCC[NH3+])nn3)CC2)nc(N2CCN(C(=O)[C@H](Cc3ccc(O)cc3)n3cc(CCO)nn3)CC2)n1.[Cl-],3.04
6,O=C(NCCc1c[nH]c2ccccc12)C1CCN(S(=O)(=O)c2ccc(F)cc2)CC1,-28.3
7,CCOc1cc(/C=C2/N=C(c3ccc(C(C)(C)C)cc3)OC2=O)cc(Cl)c1OS(C)(=O)=O,3.92
8,CCOC(=O)C(/C(C)=N/NC(=O)C1CC1c1ccccc1)C(C)C (stereo not shown),-28.9
9,CCOC(=O)C1CN(S(=O)(=O)c2ccc(OC)cc2)c2cc(CC(=O)OC)ccc2O1 (stereo not shown),-19.2
10,O=C(NC1CCCc2ccccc21)c1cccnc1 (stereo not shown),11.5
11,C=CCc1cc(Cl)ccc1OCCN1CC(C)OC(C)C1.O=C(O)C(=O)O (stereo not shown),-53.1
12,Cn1c(=O)c2c(nc(SCC(=O)c3ccccc3F)n2C)n(C)c1=O,1.17
13,COc1ccc(-c2cc3cccc(OC)c3oc2=O)cc1,8.7
14,Cc1ccccc1NC(=O)OCc1ccccc1,-6.69
15,COc1ccc(C(=O)c2ccccc2)c2c(O)ccc(C(=O)c3ccccc3)c12,22.3
16,CC(=O)CCc1oc2ccc(C)cc2c1Cc1ccccc1,10.4
17,Cc1noc(C)c1S(=O)(=O)N1CCC(C(=O)NCCc2ccc(S(N)(=O)=O)cc2)CC1,5.23
18,O=C1OCCC1NC1=NCCC1 (stereo not shown),-1.82
19,Nc1nncn1C(=O)CCCOc1ccc(Cl)cc1Cl,-2.23
20,Cc1ccc(Nc2nnc(SCC(=O)c3cc4ccccc4o3)s2)cc1C,8.51
21,CCC(=O)NC(=S)Nc1ccc(-c2nc3ccccc3s2)cc1,-2.92
22,COc1ccccc1-n1nnnc1SCC(=O)NCC1CCCO1 (stereo not shown),0.846
23,COc1ccc(-c2cc(=O)oc3c(C)c(OCC(=O)N(C)C)ccc23)cc1,-15.9
24,Cc1cc(OCC(=O)NCC2CCC(C(=O)O)CC2)c2c(C)c(C)c(=O)oc2c1 (stereo not shown),20.7
25,Clc1ccccc1/C=N/NC1=Nc2cccc3cccc1c23,27.2
26,Cc1ccsc1/C=N/Nc1nc(=O)[nH]nc1C,4.53
27,Cc1cccn2c(=O)c(C=Nc3ccccc3)c(NCc3ccco3)nc12,4.13
